# According to PubChem BioAssay AID485273 (Sanford-Burnham Center for Chemical Genomics, 2010):
# Hit rate of the full screen: of about 330,000 compounds, about 1,500 (0.45%) were called active. Inconclusive means that the source gave no clear call. Such entries were picked first, then a sample of the others. Rule as the data show it: active = inhibition above about 45% (passing the limit was not always enough); inconclusive = no clear call, values can overlap the other calls.
# Target: Ubiquitin-conjugating enzyme E2 N (Homo sapiens) (UniProt P61088)
# Assay: UBC13 polyubiquitin chain formation inhibitors, primary screen, biochemical, TR-FRET, uHTS (AID 485273)
# Details: at 20 µM, active compounds read high
# Chain of UniProt P61088 (P61088 whole entry, looked up): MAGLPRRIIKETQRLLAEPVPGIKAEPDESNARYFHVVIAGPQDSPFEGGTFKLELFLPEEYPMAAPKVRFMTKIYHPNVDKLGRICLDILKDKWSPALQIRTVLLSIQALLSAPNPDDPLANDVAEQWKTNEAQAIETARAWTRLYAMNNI
row,SMILES,inhibition
1,COc1ccc(NC(=S)NNC(=O)c2nnn(-c3ccccc3)c2C)cc1,active: 58.7%
2,C=CCCCCCCCCC(=O)N1CCN(c2cc3c(cc2F)c(=O)c(C(=O)O)cn3CC)CC1,active: 47%
3,O=C(COc1ccccc1)NC(NC(=S)Nc1ccccc1C(=O)O)C(Cl)(Cl)Cl (configuration not stated),inactive: -8.8%
4,CCn1nc(-c2ccccc2)c2nc3ccccc3nc21,inconclusive: 65.7%
5,C=CCn1c(SCc2ccc(C(=O)Nc3nccs3)cc2)nnc1-c1ccc(C)c(Cl)c1,inactive: -1.8%
6,O=c1[nH]c(=S)c2c(n1-c1ccccc1)CCC2,inconclusive: 46.5%
7,CCOC(=O)CC(=O)CSc1nc(-c2ccccc2)cc(-c2ccccc2)c1C#N,inconclusive: 69.3%
8,O=C(Nc1ccccc1)Nc1nnc(/C=C/c2ccccc2Cl)s1,inactive: 7.3%
9,Cc1c(NC(=O)CSc2nc(N)cc(N)n2)c(=O)n(-c2ccccc2)n1C,inconclusive: 88.6%
10,COC(=O)c1c(-c2ccc(S(C)(=O)=O)cc2)sc2cc(OC)ccc12,inconclusive: 84.2%
11,N#Cc1c(-c2ccccc2)cc(-c2ccccc2)nc1Br,inconclusive: 51.4%
12,Cc1cccc(OCCOC(=O)c2c(-c3ccccc3)noc2C)c1,inactive: -0.8%
13,CCCCN(CCCC)C(=O)c1sc2nc(N3CCOCC3)c3c(c2c1N)CCCC3,inconclusive: 72.9%
14,O=C(C[C@@H]1C/C=C\C[C@H](NC(=O)OCC2c3ccccc3-c3ccccc32)C(=O)OC[C@@H]2CCCN2C1=O)N[C@@H](CO)Cc1ccccc1,inconclusive: 77.8%
15,COc1ccc(C(CNC(=O)c2ccc(NS(=O)(=O)c3ccc(F)c(C)c3)cc2)N(C)C)cc1 (configuration not stated),inactive: 40.3%
16,Cc1nnc(NC(=O)CSc2nc(C(C)C)nc3ccccc23)s1,inconclusive: 46.3%
17,CCn1ccc(C(=O)Nc2ccccc2Cl)n1,inconclusive: 62.1%
18,COc1ccc(-c2cc(-c3nnc(-c4ccncc4)o3)c3ccccc3n2)cc1,inconclusive: 62.1%
19,OCC[C@H]1C[C@H](O)[C@@H](O)[C@@]2(Cc3ccccc3O2)O1,inconclusive: 57.6%
20,O=C(Cc1cccc2ccccc12)Nc1ccc(-c2cc3ccccc3oc2=O)cc1,inconclusive: 61.5%
21,Brc1ccc2ncnc(NCc3ccccc3)c2c1,inconclusive: 78.1%
22,Cc1nc(N2CCN(c3ccccn3)CC2)c2c(C)c(C(=O)Nc3c(C)cc(Br)cc3C)sc2n1,inconclusive: 80.1%

row,SMILES,inhibition
1,Cc1cc2c(cc1C)C(=O)NC(C)(C)C2,inactive: 4.5%
2,CCOC(=O)C1=C(COC(=O)c2cc(OC)c(OC)c(OC)c2)NC(=O)NC1C (configuration not stated),active: 61.8%
3,CCCCN(C)CCNC(=O)c1cc2c(-c3cccc(OC)c3)nn(C)c2s1,active: 45.6%
4,CC(C)NCC(O)COC1CCC(C(C)(C)C)CC1 (configuration not stated),inactive: 7.4%
5,CC(OC(=O)CNC(=O)c1ccc2ccccc2c1)C(=O)NC1CCCCC1C (configuration not stated),inactive: 1.3%
6,CCOc1ccc(C(C(=O)NCC2CCCO2)N(C(=O)c2snc(C(N)=O)c2N)c2ccc3c(c2)OCCO3)cc1 (configuration not stated),active: 68.8%
7,Cc1nc(N2CCN(c3ccccn3)CC2)c2c(C)c(C(=O)Nc3ccc(F)cc3Cl)sc2n1,inconclusive: 77.5%
8,Cc1ccc(-c2nc3ncccc3o2)cc1NC(=O)C(C)(C)C,inactive: 4.2%
9,O=Cc1cccc2ccc3cccc(C(=O)O)c3c12,inactive: 5.2%
10,CCCCCCSc1cc(-c2nc3cc(C)ccn3c2NC2CCCCC2)ccc1OC,active: 50.8%
11,COC(=O)C(NC(C)=O)(Nc1sc2c(c1C(N)=O)CCCC2)C(F)(F)F (configuration not stated),inconclusive: 76.1%
12,Cc1ccc(N(C(=O)c2snc(C(N)=O)c2N)C(C(=O)NCCC(C)C)c2ccco2)cc1 (configuration not stated),active: 73.7%
13,COc1ccccc1NC(=O)COC(=O)c1cc(C)nc2ccccc12,active: 47.9%
14,COc1ccc(-c2oc3ccc(-c4cc(OC)c(OC)c(OC)c4)cc3c2C(=O)c2ccc(OC)nc2)cc1,inconclusive: 52.5%
15,COC(=O)Cc1ccc(OC(=O)CCS(=O)(=O)c2ccc(Cl)cc2)cc1,inactive: -1.8%
16,CC12CCC(C(=O)NCc3ccc(Cl)cc3)(OC1=O)C2(C)C (configuration not stated),inactive: -7.2%
17,CCOC(=O)C1=C(COC(=O)CCC(=O)c2ccc(C)cc2)NC(=O)NC1C (configuration not stated),inactive: -9.5%
18,COC(=O)NC(NC(=S)Nc1cccc(C)c1)C(Cl)(Cl)Cl (configuration not stated),inactive: 4.7%
19,CSCCC(NC(=O)c1ccc(Cl)cc1Cl)C(=O)NNC(=O)c1csc(N2CCOCC2)n1 (configuration not stated),active: 58.4%
20,CCC(=O)NC(=S)NNC(=O)c1ccc(OC)cc1,active: 81.4%
21,Cc1ccc([N+](=O)[O-])cc1S(=O)(=O)Nc1cccc(-c2ccc(N3CCCC3)nn2)c1,inactive: -11.1%
22,O=C(c1cc(-c2ccncc2)nc2ccccc12)N1CCN(c2ccccn2)CC1,inconclusive: 89.9%

row,SMILES,inhibition
1,CC(=O)c1ccc(OCC(=O)OCC(=O)NCc2ccco2)cc1,inconclusive: 65.1%
2,CCOC(=O)c1ccc(NC(=O)c2nc[nH]c2C(=O)NCC(=O)OC(C)(C)C)cc1,active: 51.7%
3,COc1ccc(C)cc1Nc1n[n+](-c2ccccc2)c(-c2ccc(OC)c(OC)c2OC)s1,active: 47.9%
4,Cc1ccc(Sc2ccc(NC(=O)c3ccc(S(C)(=O)=O)cc3Cl)cc2)cc1,inconclusive: 71.8%
5,CC(C)NC(=O)c1c(O)c2ccccc2[nH]c1=O,inactive: 13%
6,COc1ccc(C(N)=O)c(OCC(=O)Nc2cc(C)on2)c1,inactive: 4.6%
7,O=c1[nH]c(-c2ccccc2O)nc2c1CCCC2,inconclusive: 84.7%
8,COc1cc(NC(=O)CCc2nnc3ccc(N4CCC(C)CC4)nn23)cc(OC)c1,inconclusive: 56.5%
9,CCC(=O)N1c2ccc(C)cc2C2=NNC(=S)NC21O (configuration not stated),active: 47.3%
10,COc1ccccc1OCCNC(=O)c1cccc(S(=O)(=O)N2CCN(Cc3ccccc3)CC2)c1,active: 69.9%
11,Cc1ccc(-c2cc(C(F)F)n3ncc(C(=O)N4CCCCC4c4cccnc4)c3n2)cc1 (configuration not stated),inconclusive: 82.4%
12,CC1CCN(CCCNC(=O)c2ccc(Cn3c(=S)[nH]c4ccc(Br)cc4c3=O)cc2)CC1,inconclusive: 62.5%
13,COc1ccc(-c2oc3ncnc(NCCN4CCOCC4)c3c2-c2ccc(OC)cc2)cc1,inactive: 35%
14,C=CCOC(=O)C1=C[C@@H](c2cn(C(C)=O)c3ccccc23)C[C@@H](OCCCCO)O1,inconclusive: 73.5%
15,N=c1n(Cc2ccccc2)c2ccccc2n1CC(O)c1ccco1 (configuration not stated),inactive: 10.8%
16,Cc1cc(C)c2nc(NCCCNC(=S)NCCCN(C)C)c(C#N)cc2c1,active: 50%
17,Nc1ccc(C(=O)n2c3ccccc3c3ccccc32)cc1,inconclusive: 58.9%
18,COc1ccc2cc1Oc1ccc(cc1)C[C@H]1c3c(cc4c(c3Oc3cc5c(cc3OC)CCN(C)[C@@H]5C2)OCO4)CCN1C,inactive: 24.7%
19,CCCn1nc(-c2ccccc2)c2nc3ccccc3nc21,inconclusive: 48.8%
20,Cc1ccc(SCC(=O)NCCSC(C)(C)C)cc1,inconclusive: 79%
21,Cc1ccc(C(=O)Nc2nc(-c3ccco3)c(-c3ccco3)s2)o1,inconclusive: 53.3%
22,CC(=O)c1sccc1NC(=O)c1ccccc1C(=O)O,inconclusive: 90.1%

row,SMILES,inhibition
1,Cc1ccc(-c2nnc(-c3cccc(Br)c3)o2)cc1,inactive: -2.2%
2,CC1CC(C)(C)CC2(C1)NC(=O)N(CC(=O)OCc1ccc(Br)cc1)C2=O (configuration not stated),inconclusive: 93.9%
3,CCCCSc1nc2c(cc1C#N)CCC2,inconclusive: 50.1%
4,COc1ccc(C(=O)c2oc3ccc(Br)cc3c2NC(C)=O)cc1,inconclusive: 72.5%
5,CC(C)Oc1cccc(C(=O)Nc2ccccc2N2CCOCC2)c1,inactive: 3.4%
6,CN(Cc1ccccc1)c1ncnc2ccc(Br)cc12,inconclusive: 72.5%
7,CCC1(c2ccccc2)NC(=O)N(CC(=O)Nc2cc(Cl)ccc2N2CCN(C)CC2)C1=O (configuration not stated),active: 86.9%
8,Cc1cc(C2C(C#N)=C(N)SC(N)=C2C#N)c(C)s1,inconclusive: 50.4%
9,COc1ccc(C(=O)/C=C/c2cccs2)c(OC(=O)c2cccc([N+](=O)[O-])c2)c1,inactive: -12.1%
10,CC(C)C1Cc2c(sc3[nH]c(=S)n(Cc4ccccc4)c(=O)c23)CO1 (configuration not stated),inconclusive: 53.4%
11,COc1ccc(/C=C/C(=O)Nc2ccccc2F)cc1S(=O)(=O)N1CCOCC1,inactive: 1.2%
12,COc1ccc(-c2c3c(nc4sc(C(=O)Nc5ccccc5)c(N)c24)CCC3)cc1,active: 45.8%
13,CCn1c(=NC(=O)c2ccc(S(=O)(=O)N(C)C)cc2)sc2cccc(OC)c21,inconclusive: 56.4%
14,COC(=O)C1=C(C)N(Cc2ccccc2)C(=NCCc2c[nH]c3ccccc23)N[C@H]1c1cccc(C(F)(F)F)c1,active: 74%
15,Cc1cc(C)nc(SCC(=O)c2cc3ccccc3oc2=O)n1,inconclusive: 88.2%
16,CCNC(=O)/C(C#N)=C/c1c(N(Cc2ccccc2)Cc2ccccc2)nc2ccccn2c1=O,inconclusive: 70.5%
17,CN(C)c1c([N+](=O)[O-])ncn1C,inconclusive: 71.6%
18,O=C(N/N=C/c1ccccc1[N+](=O)[O-])c1ccc2c(c1)OCCO2,inactive: -2.2%
19,N#CC(C#N)=C1NC(N)=C(C#N)C(c2ccccc2)=C1C#N,inconclusive: 65.5%
20,COc1ccc(-c2cc(=O)[nH]c(=S)[nH]2)cc1,inconclusive: 65.5%
21,CC1CN(C2=NC(=O)/C(=C3/C(=O)N(Cc4ccc(F)cc4)c4ccccc43)S2)CC(C)O1 (configuration not stated),inconclusive: 87.9%
